# Some of the results follow.
# B1: CC1G-11630 (Coprinopsis cinerea), A8P462 (protein)
# chain: MTTEAKIKLKAVVYWELVFDYDNSSNTGEITQSYTVKISQTSTRSTFASEVSTTTIDTLTKNNQEVDVGASYGAISANVSASWEHSEEVNNMLEKTTQTSTEDTYTVETEETRSYTIGPGGMLSLFQKHFSGPGMHVAFDVFTTDLELAKERTEIDIDVDVEAIRFVREIRVVYTDIMSEAPGDHVREINGKNPDINYGFNGKFVWLVPEQTRKTAQALTNVEFVSQAESDDRYWDLAAGAGGSNRYLIPVYDTNNKDKIYELALWRSDSYITHDKVKAAGWSGTTGDINSGRGGTYLNLVWKTRHAY
# Tests used:
# Test in all cases: glycan array binding signal (z-score within array); higher = stronger binding
# Conditions in all cases: glycan notation: IUPAC condensed, linker removed
# [1] = biological target: GalNAc(a1-3)GalNAc(b1-3)Gal(a1-4)Gal(b1-4)GlcNAc
# Outline: (§1)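 Negative Z-scores can be read as non-binding. The Z-score is calculated within each array and then averaged across arrays of one protein sequence at different concentrations or buffers and across linkers. Arrays, 3228 in all, were curated from the Consortium for Functional Glycomics database and kept only where the protein sequence was available.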
# GalNAc(b1-3)Gal = biological target: GalNAc(b1-3)Gal
# Outline: as §1
# [2] = biological target: GalNAc(b1-3)Gal(a1-4)Gal(b1-4)GlcNAc
# Outline: as §1
# [3] = biological target: GalNAc(b1-3)Gal(a1-4)Gal(b1-4)GlcNAc(b1-3)Gal(b1-4)Glc
# Outline: as §1
# [4] = biological target: GalNAc(b1-3)Gal(a1-6)Gal(b1-4)Glc
# Outline: as §1
# GalNAc(b1-3)GalNAc = biological target: GalNAc(b1-3)GalNAc
# Outline: as §1
# GalNAc(b1-3)GlcNAc = biological target: GalNAc(b1-3)GlcNAc
# Outline: as §1
# GalNAc(b1-4)Gal(b1-4)Glc = biological target: GalNAc(b1-4)Gal(b1-4)Glc
# Outline: as §1
# GalNAc(b1-4)GlcNAc = biological target: GalNAc(b1-4)GlcNAc
# Outline: as §1
# [5] = biological target: GalNAc(b1-4)GlcNAc(b1-2)Man
# Outline: as §1
# [6] = biological target: GalNAc(b1-4)GlcNAc(b1-2)Man(a1-3)[GalNAc(b1-4)GlcNAc(b1-2)Man(a1-6)]Man(b1-4)GlcNAc(b1-4)GlcNAc
# Outline: as §1
# [7] = biological target: GalNAc(b1-4)GlcNAc(b1-3)GalNAc(b1-4)GlcNAc
# Outline: as §1
# GalNAc(b1-4)GlcNAc6S = biological target: GalNAc(b1-4)GlcNAc6S
# Outline: as §1
# GalNAc(b1-6)GalNAc = biological target: GalNAc(b1-6)GalNAc
# Outline: as §1
# GalNAc3S(b1-4)GlcNAc = biological target: GalNAc3S(b1-4)GlcNAc
# Outline: as §1
# GalNAc3S(b1-4)GlcNAc3S = biological target: GalNAc3S(b1-4)GlcNAc3S
# Outline: as §1
# [8] = biological target: GalNAc3S(b1-4)[Fuc(a1-3)]GlcNAc
# Outline: as §1
# GalNAc4S6S(b1-4)GlcNAc = biological target: GalNAc4S6S(b1-4)GlcNAc
# Outline: as §1
# GalNAc6S(b1-4)GlcNAc = biological target: GalNAc6S(b1-4)GlcNAc
# Outline: as §1
# Glc(a1-4)Glc = biological target: Glc(a1-4)Glc
# Outline: as §1
# [9] = biological target: Glc(a1-4)Glc(a1-4)Glc(a1-4)Glc
# Outline: as §1
# Glc(a1-6)Glc(a1-6)Glc = biological target: Glc(a1-6)Glc(a1-6)Glc
# Outline: as §1
# [10] = biological target: Glc(a1-6)Glc(a1-6)Glc(a1-6)Glc
# Outline: as §1
# Glc(b1-4)Glc = biological target: Glc(b1-4)Glc
# Outline: as §1
# Glc(b1-6)Glc = biological target: Glc(b1-6)Glc
# Outline: as §1
# GlcA(b1-3)Gal = biological target: GlcA(b1-3)Gal
# Outline: as §1
# GlcA(b1-3)GlcNAc = biological target: GlcA(b1-3)GlcNAc
# Outline: as §1
# GlcA(b1-6)Gal = biological target: GlcA(b1-6)Gal
# Outline: as §1
# [11] = biological target: GlcA3S(b1-3)Gal(b1-4)GlcNAc(b1-2)Man
# Outline: as §1
# [12] = biological target: GlcA3S(b1-3)Gal(b1-4)GlcNAc(b1-3)Gal(b1-4)Glc
# Outline: as §1
# [13] = biological target: GlcNAc(a1-3)Gal(b1-4)GlcNAc
# Outline: as §1
# [14] = biological target: GlcNAc(a1-4)Gal(b1-3)GlcNAc
# Outline: as §1
# [15] = biological target: GlcNAc(a1-4)Gal(b1-4)GalNAc
# Outline: as §1
# [16] = biological target: GlcNAc(a1-4)Gal(b1-4)GlcNAc
# Outline: as §1
# [17] = biological target: GlcNAc(a1-4)Gal(b1-4)GlcNAc(b1-3)Gal(b1-4)Glc
# Outline: as §1
# [18] = biological target: GlcNAc(a1-4)Gal(b1-4)GlcNAc(b1-3)Gal(b1-4)GlcNAc
# Outline: as §1
# [19] = biological target: GlcNAc(a1-4)Gal(b1-4)GlcNAc(b1-3)Gal(b1-4)GlcNAc(b1-3)Gal(b1-4)GlcNAc
# Outline: as §1
# [20] = biological target: GlcNAc(a1-4)Gal(b1-4)GlcNAc(b1-3)Gal(b1-4)[Fuc(a1-3)]GlcNAc(b1-3)Gal(b1-4)[Fuc(a1-3)]GlcNAc
# Outline: as §1
binder,measurement,setting,value
B1,glycan array binding signal (z-score),[1],-0.849
same,glycan array binding signal (z-score),GalNAc(b1-3)Gal,-0.06
same,glycan array binding signal (z-score),[2],0.165
same,glycan array binding signal (z-score),[3],-0.129
same,glycan array binding signal (z-score),[4],-0.617
same,glycan array binding signal (z-score),GalNAc(b1-3)GalNAc,-0.822
same,glycan array binding signal (z-score),GalNAc(b1-3)GlcNAc,-0.463
same,glycan array binding signal (z-score),GalNAc(b1-4)Gal(b1-4)Glc,1.99
same,glycan array binding signal (z-score),GalNAc(b1-4)GlcNAc,-0.011
same,glycan array binding signal (z-score),[5],-0.148
same,glycan array binding signal (z-score),[6],-0.267
same,glycan array binding signal (z-score),[7],-0.1
same,glycan array binding signal (z-score),GalNAc(b1-4)GlcNAc6S,-0.254
same,glycan array binding signal (z-score),GalNAc(b1-6)GalNAc,-0.821
same,glycan array binding signal (z-score),GalNAc3S(b1-4)GlcNAc,-0.609
same,glycan array binding signal (z-score),GalNAc3S(b1-4)GlcNAc3S,0.1
same,glycan array binding signal (z-score),[8],0.036
same,glycan array binding signal (z-score),GalNAc4S6S(b1-4)GlcNAc,0.25
same,glycan array binding signal (z-score),GalNAc6S(b1-4)GlcNAc,-0.343
same,glycan array binding signal (z-score),Glc(a1-4)Glc,-0.07
same,glycan array binding signal (z-score),[9],0.19
same,glycan array binding signal (z-score),Glc(a1-6)Glc(a1-6)Glc,-0.093
same,glycan array binding signal (z-score),[10],0.977
same,glycan array binding signal (z-score),Glc(b1-4)Glc,0.323
same,glycan array binding signal (z-score),Glc(b1-6)Glc,0.483
same,glycan array binding signal (z-score),GlcA(b1-3)Gal,-0.032
same,glycan array binding signal (z-score),GlcA(b1-3)GlcNAc,-0.286
same,glycan array binding signal (z-score),GlcA(b1-6)Gal,0.625
same,glycan array binding signal (z-score),[11],-0.172
same,glycan array binding signal (z-score),[12],0.565
same,glycan array binding signal (z-score),[13],-0.375
same,glycan array binding signal (z-score),[14],-0.499
same,glycan array binding signal (z-score),[15],-0.038
same,glycan array binding signal (z-score),[16],-0.761
same,glycan array binding signal (z-score),[17],-0.932
same,glycan array binding signal (z-score),[18],-0.307
same,glycan array binding signal (z-score),[19],-0.571
same,glycan array binding signal (z-score),[20],0.104

# From the supplement of paper PMC8728848
